The RNAGym collection of RNA variant scans (doi:10.1093/nar/gkz1192)
Read counts are not given, so values of variants with three or more changes are uncertain.

B1: CPEB3 Ribozyme (parent)
chain: UAACAGGGGGCCACAGCAGAAGCGUUCACGUCGCAGCCCCUGUCAGAUUCUGGUGAAUCUGCGAAUUCUGCUGUAUAUCUC

Variants of: B1
Experiment: self-cleavage, relative activity (ratio to wild type); higher = more cleavage; in vitro, sequencing
In short: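 Relative activity compares each variant's cleaved/total read fraction with that of the unmutated ribozyme. To get these fractions, barcoded CPEB3 ribozyme libraries from rounds of error-prone PCR were transcribed with T7 RNA polymerase for 5 hours at 37°C and then given 15 min of DNase I treatment before EDTA was added. The RNAs were reverse transcribed with template switching and sequenced on Illumina, and DNA sequencing linked barcodes to variants. A minimum of 5 reads applied, and three batches were averaged.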

Q: Which self-cleavage does the source give for UAACAGGGAGCCACAGCAGAAGCGUACACGUCGCAGCCCCUGUUAAAUCCUGGUGAAUCUGCGAAUUCUGCUGUAUAUCUC [G9A U26A C44U G46A U49C] here?
A: Its self-cleavage is 0.15.

Q: For UAACAGGGAGCCACAGCAGAAGCGUCCACGUCGCAGCCCCUGUCAGUUUCUGGUGGCUCUGCGAAUUCUGCUGUAUAUCUC [G9A U26C A47U A56G A57C], which self-cleavage is on record?
A: The self-cleavage was 0.

Q: For UAACAGGGAGCCACAGCAGAAGCGUUCACGACGCAGCCCCUGUCAGAUUCUAGUGAGUCUGCGAAUUCUGCUGUAUAUCUC [G9A U31A G52A A57G], which self-cleavage is on record?
A: Its self-cleavage is 0.05.

Q: With UAACAGGGAGCCACAGCAGAAGCGUUCACGACGCAGCCCCCGUCAGAUUCUGGUGAAUCUGCGAAUUCUGCUGUAUAUCUC [G9A U31A U41C] as the variant, how does the self-cleavage read?
A: Its self-cleavage is 0.31.

Q: Which self-cleavage does the source give for UAACAGGGAGCCACAGCAGAAGCGUUCACGCCGCAGCCCCUGUCAGAUUCUGGUGAAUCUGCGGAUUCCGCUGUAUAUCAC [G9A U31C A64G U69C U80A] here?
A: The self-cleavage was 0.07.

Q: Which self-cleavage does the source give for UAACAGGGAGCCACAGCAGAAGCGUUCACGGCGCAGCCCCUGUCAGAUUCUGGUGAAUCUGCGAACUCUGCUGUAUAUCUC [G9A U31G U66C] here?
A: The self-cleavage was 0.05.

Q: For UAACAGGGAGCCACAGCAGAAGCGUUCACGUCGCAGCCCCAGUCAGACUCUGGUGAAUCUGCGAAUUCCGCUGUAUAUCUC [G9A U41A U48C U69C], which self-cleavage is on record?
A: Its self-cleavage is 0.17.

Q: With UAACAGGGAGCCACAGCAGAAGCGUUCACGUCGCAGCCCCAGUCAGAUUCUGGCGAAUCUGCGAAUCCUGCUGUAUAUCAC [G9A U41A U54C U67C U80A] as the variant, how does the self-cleavage read?
A: Its self-cleavage is 0.05.

Q: Which self-cleavage does the source give for UAACAGGGAGCCACAGCAGAAGCGUUCACGUCGCAGCCCCCGUCAGAUUCUGGAGAAUCAGCGAAUUCUGCUGGUUAUCUC [G9A U41C U54A U60A U74G A75U] here?
A: Its self-cleavage is 0.09.

Q: Which self-cleavage does the source give for UAACAGGGAGCCACAGCAGAAGCGUUCACGUCGCAGCCCCUGACUGAUUCUGGUGAAUCUGCGAAUUCUGCUGUAUAUAUC [G9A U43A A45U C79A] here?
A: The self-cleavage was 0.05.

Q: For UAACAGGGAGCCACAGCAGAAGCGUUCACGUCGCAGCCCCUGCCAGAUUCUGGUGAGUCUGCGAAUUCUGCUGUAUGUCUC [G9A U43C A57G A77G], which self-cleavage is on record?
A: Its self-cleavage is 0.14.

Q: For UAACAGGGAGCCACAGCAGAAGCGUUCACGUCGCAGCCCCUGCCAGAUUCUGGUGAAUCUGCUAAUUCUGCUUUAUAUCUC [G9A U43C G63U G73U], which self-cleavage is on record?
A: Its self-cleavage is 0.74.

Q: Which self-cleavage does the source give for UAACAGGGAGCCACAGCAGAAGCGUUCACGUCGCAGCCCCUGGCAGAUUCUGGUGAAUCUGCGAAUUCUGCCGUAUAUCUC [G9A U43G U72C] here?
A: The self-cleavage was 0.08.

Q: With UAACAGGGAGCCACAGCAGAAGCGUUCACGUCGCAGCCCCUGUCAGACUCUGGUGAAUCCGCGAAUUCUGCUGUAUAUCUC [G9A U48C U60C] as the variant, how does the self-cleavage read?
A: The self-cleavage was 0.21.

Q: With UAACAGGGAGCCACAGCAGAAGCGUUCACGUCGCAGCCCCUGUCAGAUUCUGGAGAAUCAGCGAAUUCUGCUGUAUACCUC [G9A U54A U60A U78C] as the variant, how does the self-cleavage read?
A: The self-cleavage was 0.08.

Q: Which self-cleavage does the source give for UAACAGGGAGCCACAGCAGAAGCGUUCACGUCGCAGCCCCUGUCAGAUUCUGGAGAAUCUGCGAAAUCUGCUGUAUAUCCC [G9A U54A U66A U80C] here?
A: Its self-cleavage is 0.19.

Q: For UAACAGGGAGCCACAGCAGAAGCGUUCACGUCGCAGCCCCUGUCAGAUUCUGGCGAAUCUACGAAUUCUGCUGUAUAUCUC [G9A U54C G61A], which self-cleavage is on record?
A: Its self-cleavage is 0.12.

Q: Which self-cleavage does the source give for UAACAGGGAGCCACAGCAGAAGCGUUCACGUCGCAGCCCCUGUCAGAUUCUGGUGAAGCUGCGAAUUCUGCUGUAUCUCUC [G9A U58G A77C] here?
A: The self-cleavage was 0.06.

Q: For UAACAGGGAGCCACAGCAGAAGCGUUCACGUCGCAGCCCCUGUCAGAUUCUGGUGAAUCUGCGAACACUGCUGUAUAUCUC [G9A U66C U67A], which self-cleavage is on record?
A: Its self-cleavage is 0.16.

Q: With UAACAGGGAGCCACAGCAGAAGCGUUCACGUCGCAGCCCCUGUCAGAUUCUGGUGAAUCUGCGAAUUCUGCCGUACAUCUC [G9A U72C U76C] as the variant, how does the self-cleavage read?
A: The self-cleavage was 0.41.

Q: Which self-cleavage does the source give for UAACAGGGCGCCUCAGCAGAAGCGUUCACGUCGCAGCCCCUGUCAGAUUCUGGUGAAUCUGCGAGUGCAGCUGUAUAUCUC [G9C A13U A65G U67G U69A] here?
A: The self-cleavage was 0.16.

Q: Which self-cleavage does the source give for UAACAGGGCGCCACGGCAGAAGCGUUCACGUCGCAGCCCCUGUCAGAUCCUGGUGAAUCUGCUAAUUCUGCUGUAUAUCUC [G9C A15G U49C G63U] here?
A: The self-cleavage was 0.42.

Q: Which self-cleavage does the source give for UAACAGGGCGCCACUGCAGAAGCGUUUACGUCGCAGCCCCUGGUAGAUUCUGGUGAAUCUGCGAAUUCCGCUGUAUAUCUC [G9C A15U C27U U43G C44U U69C] here?
A: The self-cleavage was 0.07.

Q: Which self-cleavage does the source give for UAACAGGGCGCCACAGCGGAUGCGUUCACGUCGCAGCCCCUGACAGAUUCUGGUGAAUCUGCGAGUUCUGCUGUAUAUCUC [G9C A18G A21U U43A A65G] here?
A: Its self-cleavage is 0.04.

Q: For UAACAGGGCGCCACAGCGGAAGCGUUCACGUCGCAGCCCCUGUCAGAUUCUGGUGAAUCUGCGAAUUCUGCUGUGUAUCUC [G9C A18G A75G], which self-cleavage is on record?
A: The self-cleavage was 0.18.

Q: For UAACAGGGCGCCACAGCUGGAGCGUUCACGUCGCAGCCCCUGUCAGAUUCUGGCGAAUCUGCGAAUUCUGCUGUAUAUCCC [G9C A18U A20G U54C U80C], which self-cleavage is on record?
A: The self-cleavage was 0.34.

Q: For UAACAGGGCGCCACAGCAGAGGCGUUCACGUCGCAGCCCCUGUCAGAUUCUGGUGAAUCUGCGGACUCUGCUGUAUAUCUC [G9C A21G A64G U66C], which self-cleavage is on record?
A: The self-cleavage was 0.22.

Q: Which self-cleavage does the source give for UAACAGGGCGCCACAGCAGAAGCGUUCUCGUCGCAGCACCUGUCAGAUUCUGAUGAAGCUGCGAAUUCUGCUGUAUAUCUC [G9C A28U C38A G53A U58G] here?
A: The self-cleavage was 0.05.

Q: With UAACAGGGCGCCACAGCAGAAGCGUUCACGUCGCGGCCCCUGUCAGAUUCUGGUGAAUCUGCGAAUUCUGCUGUAUACCUC [G9C A35G U78C] as the variant, how does the self-cleavage read?
A: The self-cleavage was 0.41.

Q: With UAACAGGGCGCCACAGCAGAAGCGUUCACGUCGCAGCCCCUGUCAGAUUCUGGUGGAUCUGCGGAUUCUGCUGUAUAUCUC [G9C A56G A64G] as the variant, how does the self-cleavage read?
A: Its self-cleavage is 0.14.

Q: Which self-cleavage does the source give for UAACAGGGCGUAACAGCAGAAGCGUCCACCUCGCAGCCCCUGUCAGAUUCUGGUGAAUCCGCGAAUUCCGCUGUAUAUCUC [G9C C11U C12A U26C G30C U60C U69C] here?
A: The self-cleavage was 0.04.

Q: Which self-cleavage does the source give for UAACAGGGCGCCACAGCAGAAGCGUUCAUGUCGCAGCCCCUGUCAGGUUCUGGUGAAUCUGCGAAUUCUGCUGUAUAUCUC [G9C C29U A47G] here?
A: The self-cleavage was 0.19.

Q: For UAACAGGGCGCCACAGCAGAAGCGUUCACGUCGCAGCCCAUGUCAGAUUCCGGUGAAUCUGCGAAUUCUGCUGUAUAUCUC [G9C C40A U51C], which self-cleavage is on record?
A: The self-cleavage was 0.15.

Q: Which self-cleavage does the source give for UAACAGGGCGCCACACCAGAAGCGUUCUCGUCGCAGCCCCUGUCAGAUUCAGGUGUAUCUGCGAAUUCUGCUGUAUAACUC [G9C G16C A28U U51A A56U U78A] here?
A: The self-cleavage was 0.05.
